{"source": "PubChem BioAssay AID1347165", "about": "(National Center for Advancing Translational Sciences (NCATS), 2019)", "note": "The campaign covered roughly 220,000 compounds. About 5,700 (2.6%) were called active. Inconclusive means that the source gave no clear call. Such entries were picked first, then a sample of the others. Calls follow the shape of the dose curve; as a rule, active = well fitted inhibition curve with a large enough effect; inconclusive = small, poorly fitted or top-dose-only effect; inactive = no such curve, though single readings can be large or run the other way. Where the call is inconclusive, the potency comes from a doubtful curve fit. Potency is read from the fitted curve at half-maximal effect; tags tell the direction and shape of the fitted curve."}
{"target": "Lysine-specific demethylase 5B (Homo sapiens) (UniProt Q9UGL1)", "sequence (Q9UGL1 whole entry, looked up)": "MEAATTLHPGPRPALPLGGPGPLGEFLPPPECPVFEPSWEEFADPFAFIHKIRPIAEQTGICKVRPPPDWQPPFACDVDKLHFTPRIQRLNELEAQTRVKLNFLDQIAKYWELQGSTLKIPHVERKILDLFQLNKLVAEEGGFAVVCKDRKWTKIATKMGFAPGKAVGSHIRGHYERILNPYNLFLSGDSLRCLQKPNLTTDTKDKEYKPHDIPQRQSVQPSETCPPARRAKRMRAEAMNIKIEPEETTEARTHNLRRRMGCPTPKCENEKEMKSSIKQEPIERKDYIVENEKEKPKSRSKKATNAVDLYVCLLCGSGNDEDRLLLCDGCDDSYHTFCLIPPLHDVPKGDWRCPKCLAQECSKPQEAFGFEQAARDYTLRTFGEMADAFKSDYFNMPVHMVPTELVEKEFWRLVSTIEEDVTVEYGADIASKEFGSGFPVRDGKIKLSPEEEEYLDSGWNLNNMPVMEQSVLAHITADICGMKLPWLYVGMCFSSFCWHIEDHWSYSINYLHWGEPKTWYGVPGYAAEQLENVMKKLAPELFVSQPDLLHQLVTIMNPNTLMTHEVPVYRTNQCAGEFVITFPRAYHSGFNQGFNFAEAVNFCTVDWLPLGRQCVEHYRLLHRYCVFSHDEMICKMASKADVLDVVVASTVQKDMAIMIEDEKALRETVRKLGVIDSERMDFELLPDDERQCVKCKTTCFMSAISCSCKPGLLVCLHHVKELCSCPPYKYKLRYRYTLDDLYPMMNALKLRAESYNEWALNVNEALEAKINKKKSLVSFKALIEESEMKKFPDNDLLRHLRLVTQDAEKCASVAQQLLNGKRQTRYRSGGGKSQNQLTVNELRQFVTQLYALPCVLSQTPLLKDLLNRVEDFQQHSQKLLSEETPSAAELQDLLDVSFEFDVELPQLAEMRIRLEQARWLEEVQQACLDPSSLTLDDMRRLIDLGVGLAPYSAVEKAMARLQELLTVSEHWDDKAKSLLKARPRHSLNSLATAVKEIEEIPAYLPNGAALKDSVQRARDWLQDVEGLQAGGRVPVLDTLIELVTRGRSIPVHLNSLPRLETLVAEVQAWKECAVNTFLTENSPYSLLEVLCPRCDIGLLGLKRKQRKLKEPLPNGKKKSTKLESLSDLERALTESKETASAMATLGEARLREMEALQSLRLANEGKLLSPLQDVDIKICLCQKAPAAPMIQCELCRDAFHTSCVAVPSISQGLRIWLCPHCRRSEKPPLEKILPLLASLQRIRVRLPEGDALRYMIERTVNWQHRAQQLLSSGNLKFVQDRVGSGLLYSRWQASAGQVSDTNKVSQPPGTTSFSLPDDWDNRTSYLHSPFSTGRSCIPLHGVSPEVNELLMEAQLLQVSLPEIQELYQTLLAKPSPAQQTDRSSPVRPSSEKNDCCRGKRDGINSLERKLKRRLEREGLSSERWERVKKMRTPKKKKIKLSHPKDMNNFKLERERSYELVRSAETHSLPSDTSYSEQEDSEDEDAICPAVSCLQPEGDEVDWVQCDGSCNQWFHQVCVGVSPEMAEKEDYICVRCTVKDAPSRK", "test": "Primary screen for KDM5B Histone Demethylases FDH-coupled qHTS; also: nearly all actives have a fitted effect of over 70% in size", "conditions": "FDH-coupled NADH fluorescence (FDH is formaldehyde dehydrogenase); series mostly up to 57.7 µM", "how_it_was_run": "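Compound dilutions met 200 nM (final) KDM5BΔAP for 10 min at room temperature before substrate addition. The substrate mix held 12.5 µM H3K4me3 with cofactors 25 µM α-ketoglutarate and 50 µM Fe²⁺. NADH signal gain over 30 min defined activity.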"}
{"smiles": "Cc1ccc(NC(=O)C2(CCO)CCN(c3ncccn3)C2)cc1", "note": "(configuration not stated)", "Potency": "active: 28.2 µM"}
{"smiles": "COc1cccc2ccc(-c3c(-c4ccccc4)ncn3CCNC(C)=O)nc12", "Potency": "inconclusive: 35.5 µM [inhibitor, single point]"}
{"smiles": "O=C(c1ccc(-c2ncc3cnc(-c4cccc(F)c4)cn23)cc1)N1CCc2cccnc21", "Potency": "inconclusive: 28.2 µM [inhibitor, partial curve]"}
{"smiles": "O=C(Nc1ccc(Br)cc1)C1CCN(c2ncccn2)CC1", "Potency": "inconclusive: 39.8 µM [inhibitor, single point]"}
{"smiles": "N#Cc1ccnc(Sc2ccc(F)cc2)c1", "Potency": "inactive"}
{"smiles": "CSc1nc(=S)cc(C)[nH]1", "Potency": "inconclusive: 28.2 µM [inhibitor, single point]"}
{"smiles": "Cc1nn(C)cc1C(=O)N[C@@H]1CN(C2CCOCC2)C[C@H]1CN(C)C", "Potency": "inconclusive: 12.6 µM [inhibitor, partial curve, poor fit]"}
{"smiles": "c1ccc(CN2CCn3c(nnc3C3CCNCC3)C2)cc1", "Potency": "active: 100 µM"}
{"smiles": "CCN(CC)Cc1cnc2c(C(=O)N3CCCC(COC)C3)cnn2c1", "note": "(configuration not stated)", "Potency": "inactive"}
{"smiles": "Cc1cccc(CNc2ncncc2-c2nc(-c3ccccc3)no2)c1", "Potency": "inconclusive: 39.8 µM [inhibitor, single point]"}
{"smiles": "Cc1ccc(-c2nc3ccccn3c2Nc2ccc3c(c2)OCCO3)o1", "Potency": "inconclusive: 28.2 µM [inhibitor, partial curve, poor fit]"}
{"smiles": "O=C1CN(C(=O)COc2ccc(Cl)cc2)C(c2ccc(F)cc2)c2cc(Cl)ccc2N1", "note": "(configuration not stated)", "Potency": "inactive"}
{"smiles": "COc1ccccc1CC(=O)N1CCc2c(nc[nH]c2=O)C1", "Potency": "inactive"}
{"smiles": "NC(=O)Cc1c[nH]c2ncc(-c3cccc(O)c3)cc12", "Potency": "inconclusive: 35.5 µM [inhibitor, single point]"}
{"smiles": "Nc1c(C(=O)O)sc2nc(-c3ccccc3)cc(-c3ccc(Cl)cc3)c12", "Potency": "inconclusive: 35.5 µM [inhibitor, single point]"}
{"smiles": "COc1cccc(/C=N/NC(=O)CNC(=O)C(c2ccccc2)c2ccccc2)c1O", "Potency": "inconclusive: 25.1 µM [inhibitor, single point]"}
{"smiles": "N#Cc1cccnc1NCc1cccc(NC(=O)c2ccncc2)c1", "Potency": "inconclusive: 39.8 µM [inhibitor, single point]"}
{"smiles": "COc1ccc(C(=O)N2CCC(N3CC4CC(C3)[C@H]3CCCC(=O)N3C4)CC2)c(C)c1", "note": "(some centres not stated)", "Potency": "inconclusive: 28.2 µM [inhibitor, partial curve, poor fit]"}
{"smiles": "CCOc1ccc(NC(=O)C2CCN(S(=O)(=O)c3c(C)noc3/C=C/c3ccco3)CC2)cc1", "Potency": "inconclusive: 31.6 µM [inhibitor, partial curve, poor fit]"}
{"smiles": "Cc1cc(C)n(-c2ncnc3scc(-c4ccccc4)c23)n1", "Potency": "inconclusive: 39.8 µM [inhibitor, single point]"}
{"smiles": "COc1ccc(-c2cc(N3CCCC(NC(=O)c4ccc(C)cc4)C3)n[nH]2)cc1", "note": "(configuration not stated)", "Potency": "inconclusive: 35.5 µM [inhibitor, partial curve, poor fit]"}
{"smiles": "CCOC(=O)c1ccccc1NC(=O)N1CC(C)Oc2ccc(C)cc21", "note": "(configuration not stated)", "Potency": "inconclusive: 2.24 µM [inhibitor, partial curve, poor fit]"}
{"smiles": "COc1ccccc1CNC(=O)c1ccc(-n2c(C)cc3c2CCCC3)cc1", "Potency": "inconclusive: 12.6 µM [inhibitor, partial curve, poor fit]"}
{"smiles": "Cc1nnc([C@H]2CCN(Cc3cnc4ccccc4c3)C2)o1", "Potency": "inconclusive: 35.5 µM [inhibitor, partial curve, poor fit]"}
{"smiles": "COc1ccc(Cl)cc1NC(=O)c1cnc(N2CCCCC2)c2ccccc12", "Potency": "inconclusive: 39.8 µM [inhibitor, partial curve, poor fit]"}
{"smiles": "Cc1ccc(-c2ccc3nnc(CNC(=O)c4ccc(Cl)s4)n3n2)cc1", "Potency": "inconclusive: 31.6 µM [inhibitor, partial curve, poor fit]"}
{"smiles": "COc1ccc2c(c1)cc(C(=O)Nc1c(C)cccc1C)n2C", "Potency": "inconclusive: 22.4 µM [inhibitor, partial curve, poor fit]"}
{"smiles": "Cc1noc(C)c1C(=O)N1CCN(c2cc(Cl)ncn2)C(=O)C1", "Potency": "inconclusive: 100 µM [inhibitor, partial curve, poor fit]"}
{"smiles": "O=C(c1ccccc1F)N1c2nc(-c3ccco3)nn2C2(CCCCC2)[C@@H]2CCCC[C@@H]21", "Potency": "inconclusive: 14.1 µM [inhibitor, partial curve, poor fit]"}
{"smiles": "COc1ccc(CN2C(=O)[C@@H]3C[C@@H](CN3C3CCN(C)CC3)Oc3ccccc32)cc1", "Potency": "inconclusive: 15.8 µM [inhibitor, partial curve]"}
{"smiles": "Cc1oc(-c2nc(C#N)c(NCC3CCCO3)o2)cc1S(=O)(=O)N1CCCC1", "note": "(configuration not stated)", "Potency": "inconclusive: 28.2 µM [inhibitor, partial curve, poor fit]"}
{"smiles": "N#Cc1ccc(C(=O)NCCc2cccnc2)cc1", "Potency": "inactive"}
{"smiles": "Cn1ncc(N2CCC(NC(=O)CC3CCCCC3)CC2)cc1=O", "Potency": "inactive"}
{"smiles": "COc1cccc(C(=O)N2CCN(Cc3ccccn3)CC2)c1", "Potency": "inconclusive: 8.91 µM [inhibitor, full curve, poor fit]"}
{"smiles": "NCC(c1ccco1)N1CCCC1", "note": "(configuration not stated)", "Potency": "inactive"}
{"smiles": "O=C(c1cc(F)cc(F)c1)N(Cc1ccco1)C1CC1", "Potency": "inconclusive: 14.1 µM [inhibitor, partial curve, poor fit]"}
{"smiles": "CN1CC(=O)N(C2CCCNC2)Cc2c(NCC3CCCCCC3)ncnc21", "note": "(configuration not stated)", "Potency": "inconclusive: 56.2 µM [inhibitor, partial curve, poor fit]"}
{"smiles": "COc1ccc2[nH]c(C(=O)NCc3ccc4c(c3)OCO4)cc2c1", "Potency": "inconclusive: 31.6 µM [inhibitor, partial curve, poor fit]"}
{"smiles": "CC(C)c1ccc(NC(=O)O[C@@H]2CO[C@H]3[C@@H]2OC[C@@H]3NC(=O)c2ccccc2)cc1", "Potency": "inactive"}
{"smiles": "O=C(c1ccc2nccn2c1)N1CCN(c2cnccn2)CC1", "Potency": "inconclusive: 28.2 µM [inhibitor, partial curve, poor fit]"}
{"smiles": "CC(O)CNc1nc(-c2ccco2)c2c(c1C#N)CCCC2", "note": "(configuration not stated)", "Potency": "inconclusive: 22.4 µM [inhibitor, partial curve, poor fit]"}
{"smiles": "COc1ccc(-c2cc(N3CCCN(C(=O)Cc4ccc(OC)c(Cl)c4)CC3)n[nH]2)cc1", "Potency": "inconclusive: 10 µM [inhibitor, partial curve, poor fit]"}
{"smiles": "O=c1oc2ccc(Cl)cc2nc1/C=C(\\O)c1cccs1", "Potency": "inconclusive: 31.6 µM [inhibitor, partial curve, poor fit]"}
{"smiles": "c1ccc(CCCNc2ncncc2-c2nc(-c3ccccc3)no2)cc1", "Potency": "active: 28.2 µM"}
{"smiles": "COc1ccc(C(=O)NNc2ncnc3c2cnn3-c2ccc(C)cc2C)cc1", "Potency": "inconclusive: 17.8 µM [inhibitor, partial curve, poor fit]"}
{"smiles": "CCOCCCn1c(=N)c(C(=O)NC(C)c2ccccc2)cc2c(=O)n3cccc(C)c3nc21", "note": "(configuration not stated)", "Potency": "inconclusive: 7.94 µM [inhibitor, partial curve, poor fit]"}
{"smiles": "O=C(NC1CCN(c2cc(-c3ccccc3)[nH]n2)C1)c1cccs1", "note": "(configuration not stated)", "Potency": "inconclusive: 17.8 µM [inhibitor, partial curve, poor fit]"}
{"smiles": "COc1cc2ncc3c(-c4ccccc4)nn(CC(=O)NC4CCCCC4)c3c2cc1OC", "Potency": "inconclusive: 17.8 µM [inhibitor, partial curve, poor fit]"}
{"smiles": "Cc1nc(OCC(C)C)c2sc3nc4c(cc3c2n1)COC(C)(C)C4", "Potency": "inconclusive: 22.4 µM [inhibitor, single point]"}
{"smiles": "Cc1nc(N2CCCC2)ncc1C(=O)NCc1ccc(F)cc1", "Potency": "inconclusive: 17.8 µM [inhibitor, partial curve, poor fit]"}
{"smiles": "COc1ccc(C2Nc3ccccc3C(=O)N2c2ccc(C)cc2)cc1CN1CCOCC1", "note": "(configuration not stated)", "Potency": "inconclusive: 39.8 µM [inhibitor, single point]"}
{"smiles": "Cc1ccc(-c2nc(CN(C)CC(=O)N(C)C)co2)cc1", "Potency": "inactive"}
{"smiles": "C[C@@H](O)[C@H](N)C(=O)NCc1nc(-c2cccc(F)c2)c(-c2ccccn2)[nH]1", "Potency": "inconclusive: 11.2 µM [inhibitor, partial curve]"}
{"smiles": "Cc1ccc(CCNC(=O)CCn2nc(-c3ccc(Cl)cc3)ccc2=O)cc1", "Potency": "inconclusive: 4.47 µM [inhibitor, partial curve, poor fit]"}
{"smiles": "COc1ccc2c(COC(=O)CNS(=O)(=O)c3ccc(C)c(C)c3)cc(=O)oc2c1", "Potency": "inconclusive: 12.6 µM [inhibitor, partial curve, poor fit]"}
{"smiles": "CCc1ccc(-n2nc(CO)c(C(=O)NCc3cccnc3)n2)cc1", "Potency": "inconclusive: 25.1 µM [inhibitor, partial curve, poor fit]"}
{"smiles": "Cn1c(=O)c2c(nc(NCc3ccc(S(N)(=O)=O)cc3)n2Cc2ccccc2Cl)n(C)c1=O", "Potency": "inactive"}
{"smiles": "COC(=O)C1=C(C)N=C2SC=C(CC(=O)Nc3ccc(C)c(C)c3)N2C1c1ccccc1", "note": "(configuration not stated)", "Potency": "inconclusive: 28.2 µM [inhibitor, partial curve, poor fit]"}
{"smiles": "N#CC1CCN(C(=O)C2(c3ccc(Cl)cc3)CCOCC2)CC1", "Potency": "inconclusive: 63.1 µM [inhibitor, partial curve, poor fit]"}
{"smiles": "Cc1cc(C)cc(NC(=O)CCc2c(C)nc3c(c2C)c(=O)n(C)c(=O)n3C)c1", "Potency": "inconclusive: 14.1 µM [inhibitor, partial curve, poor fit]"}
{"smiles": "O=C(NCc1noc(-c2ccccc2)n1)c1ccc(Br)o1", "Potency": "inactive"}
{"smiles": "CCN1c2cc(C(=O)Nc3cccc(Br)c3)ccc2C(=O)N2CCCCCC21", "note": "(configuration not stated)", "Potency": "inconclusive: 25.1 µM [inhibitor, partial curve, poor fit]"}
